The text below walks through data of the antibiotic and cytotoxicity screens of Wong et al. (2023).

The list shows a part of the results.

This test relates to HSkMC (human skeletal muscle cells). The test can be described thus: cytotoxicity call (relative viability < 0.9). The following applies: 10 µM.
With `C[C@@H]1CN([C@H](C)CO)C(=O)c2cccc(NS(=O)(=O)c3ccc(Cl)cc3)c2O[C@@H]1CN(C)S(=O)(=O)c1cn(C)cn1`, the cytotoxicity call was “inactive”.

For `Cc1ccc(S(=O)(=O)N(C)C[C@@H]2Oc3ccc(NC(=O)Nc4cccc5ccccc45)cc3CC(=O)N([C@@H](C)CO)C[C@@H]2C)cc1`, the cytotoxicity call was “inactive”.

Regarding `C[C@H]1CN([C@@H](C)CO)C(=O)c2cc(NS(=O)(=O)c3ccc(Cl)cc3)ccc2O[C@@H]1CN(C)Cc1ccc(C(=O)Nc2ccccc2N)cc1`, the cytotoxicity call was “inactive”.

With `C[C@H](CO)N1C[C@H](C)[C@H](CN(C)S(=O)(=O)c2ccc(Cl)cc2)OCc2cnnn2CCCC1=O`, the cytotoxicity call is “inactive”.

Regarding `C[C@@H]1CN([C@@H](C)CO)C(=O)c2cc(C#CC3(O)CCCC3)cnc2O[C@H]1CN(C)C(=O)Cc1ccncc1`, the cytotoxicity call was “inactive”.

`C[C@H]1CN([C@@H](C)CO)C(=O)c2cccc(NS(=O)(=O)c3cn(C)cn3)c2O[C@H]1CN(C)Cc1ccccc1`: the cytotoxicity call was “inactive”.

In the case of `O=C1OC(CO)C(O)C(O)C1O` (stereo not given), the cytotoxicity call was “inactive”.

With `Cc1ccc(S(=O)(=O)N(C)C[C@@H]2Oc3c(NC(=O)C4CCOCC4)cccc3C(=O)N([C@@H](C)CO)C[C@@H]2C)cc1`, the cytotoxicity call is “inactive”.

On to `C[C@H]1CN([C@@H](C)CO)C(=O)c2cccc(NC(=O)CCCCCC(=O)Nc3ccccc3N)c2O[C@H]1CN(C)Cc1ccc(Cl)c(Cl)c1`, for which the cytotoxicity call is “active”.

Consider `O=c1cc(-c2ccccc2)[nH]c(=O)[nH]1`, for which the cytotoxicity call was “inactive”.

As to `CCCCOC(=O)[C@@H](N)CCC(=O)O`, the cytotoxicity call is “inactive”.

`C[C@@H]1CN([C@H](C)CO)C(=O)c2cccc(NS(C)(=O)=O)c2O[C@@H]1CN(C)S(=O)(=O)c1ccc(Cl)cc1`: the cytotoxicity call is “inactive”.

In the case of `CCS(=O)(=O)N1CCC[C@]2(C(=O)NCC3CC3)CN(Cc3cnn(C)c3)C[C@H]2C1`, the cytotoxicity call was “inactive”.

In the case of `CNC[C@@H]1Oc2cc(C#CCN(C)C)ccc2S(=O)(=O)N([C@H](C)CO)C[C@H]1C`, the cytotoxicity call was “inactive”.

With `C[C@H](CO)N1C[C@H](C)[C@H](CN(C)S(C)(=O)=O)Oc2ccc(NC(=O)Cc3cn(C)c4ccccc34)cc2C1=O`, the cytotoxicity call was “inactive”.

In the case of `COCCn1c(=NN)[nH]c2ccsc2c1=O`, the cytotoxicity call is “inactive”.

Take `C[C@@H]1CCCCO[C@@H](CN(C)C(=O)Cc2ccccc2)[C@H](C)CN([C@@H](C)CO)C(=O)c2cc(NC(=O)Nc3ccccc3)ccc2O1`: the cytotoxicity call was “inactive”.

As for `C[C@@H]1CN([C@@H](C)CO)S(=O)(=O)c2ccc(-c3cccnc3)cc2O[C@@H]1CN(C)CC1CCOCC1`, the cytotoxicity call was “inactive”.

As for `C[C@H](CO)N1C[C@H](C)[C@@H](CN(C)Cc2ccc(Cl)c(Cl)c2)OCCCC[C@H](C)Oc2ccc(NS(=O)(=O)c3cn(C)cn3)cc2C1=O`, the cytotoxicity call was “inactive”.

`C[C@@H]1CN([C@H](C)CO)C(=O)c2cccc(NS(=O)(=O)c3ccc(Cl)cc3)c2O[C@@H]1CN(C)Cc1ccc(-c2ccccc2)cc1`: the cytotoxicity call was “inactive”.

`C[C@@H](N)c1nc2c(s1)CCCC2`: the cytotoxicity call was “inactive”.

Turning to `C[C@@H]1CN([C@H](C)CO)C(=O)c2cc(N(C)C)ccc2O[C@@H](C)CCCCO[C@@H]1CN(C)C(=O)CCCN(C)C`, the cytotoxicity call is “inactive”.

In the case of `C[C@@H]1CN([C@H](C)CO)C(=O)c2cccc(NC(=O)c3cnccn3)c2O[C@H]1CN(C)S(=O)(=O)c1ccc(F)cc1`, the cytotoxicity call was “inactive”.

As to `c1ccc(-c2cccs2)nc1`, the cytotoxicity call is “inactive”.

Take `C[C@@H]1CN([C@@H](C)CO)C(=O)c2cc(C#Cc3ccc(F)cc3)cnc2O[C@@H]1CN(C)CC1CCOCC1`: the cytotoxicity call is “inactive”.

As for `C[C@@H]1CCCCO[C@@H](CN(C)S(=O)(=O)c2cn(C)cn2)[C@H](C)CN([C@@H](C)CO)C(=O)c2cc(NC(=O)Nc3ccc(C(F)(F)F)cc3)ccc2O1`, the cytotoxicity call is “inactive”.

For the compound `Cc1noc(C)c1NC(=O)Nc1ccc2c(c1)C(=O)N([C@@H](C)CO)C[C@@H](C)[C@H](CN(C)C(=O)c1ccccc1)OCCCC[C@@H](C)O2`, the cytotoxicity call was “inactive”.

Regarding `C[C@@H]1CN([C@@H](C)CO)C(=O)c2cc(NC(=O)Cc3ccccc3)ccc2O[C@@H](C)CCCCO[C@H]1CN(C)C(=O)C1CCCCC1`, the cytotoxicity call was “inactive”.

For the compound `c1ccc2[nH]c(-c3cscn3)nc2c1`, the cytotoxicity call is “inactive”.

With `O=S(=O)(N1CCOCC1)n1nnc2ccccc21`, the cytotoxicity call was “inactive”.

On to `O=C(C[C@H]1CC[C@@H]2[C@H](COC[C@H](O)CN2Cc2ccccc2F)O1)N[C@@H]1CCN(Cc2ccccc2)C1`, for which the cytotoxicity call is “inactive”.

On to `OCC(CO)NC1CC(O)(CO)C(O)C(O)C1O` (stereo not given), for which the cytotoxicity call was “inactive”.

Take `C[C@H]1CN([C@@H](C)CO)S(=O)(=O)c2ccc(C3=CCCC3)cc2O[C@H]1CN(C)C(=O)Cc1ccncc1`: the cytotoxicity call is “inactive”.

As for `O=c1[nH]nc(N2CCSCC2)[nH]1`, the cytotoxicity call is “inactive”.

With `C[C@@H]1CN([C@H](C)CO)C(=O)Cc2cc(NS(=O)(=O)c3cccs3)ccc2O[C@@H]1CN(C)CC1CC1`, the cytotoxicity call is “inactive”.

With `CCOC(=O)C1CCN(S(=O)(=O)c2c(C)n(C)c(=O)n(C)c2=O)CC1`, the cytotoxicity call is “inactive”.

For the compound `C[C@H](CO)N1C[C@H](C)[C@@H](CN(C)C(=O)Nc2ccc3c(c2)OCO3)Oc2ccc(NC(=O)C3CC3)cc2CC1=O`, the cytotoxicity call was “inactive”.

Take `C[C@@H]1CN([C@H](C)CO)C(=O)c2cc(NS(=O)(=O)c3ccc(F)cc3)ccc2O[C@@H]1CN(C)S(=O)(=O)c1ccccc1`: the cytotoxicity call is “inactive”.

Take `Cc1noc(C)c1NC(=O)Nc1ccc2c(c1)C(=O)N([C@@H](C)CO)C[C@@H](C)[C@@H](CN(C)S(=O)(=O)c1ccccc1)OCCCC[C@@H](C)O2`: the cytotoxicity call was “inactive”.

On to `Cc1noc(C)c1S(=O)(=O)Nc1ccc2c(c1)CC(=O)N([C@H](C)CO)C[C@@H](C)[C@@H](CN(C)C(=O)NC(C)C)O2`, for which the cytotoxicity call is “inactive”.
